Measurements from PubChem BioAssay AID485281 (National Center for Advancing Translational Sciences (NCATS), 2010).
About 260 (0.074%) of roughly 350,000 compounds were called active. The shares of active, inactive and inconclusive entries below differ from those in the screen. The call rests on the fitted dose curve; in most records, active means well fitted inhibition curve with a large enough effect; inconclusive means small, poorly fitted or top-dose-only effect; inactive means no such curve, though single readings can be large or run the other way. Potencies of inconclusive entries are doubtful fits and often do not repeat.

target: Ferritin light chain (Equus caballus) (UniProt P02791); assay: qHTS Assay for Identification of Novel General Anesthetics; settings: apoferritin/1-aminoanthracene competitive binding, fluorescence; series mostly up to 77.5 µM; further: nearly all actives have a fitted effect of over 20% in size
Chain of UniProt P02791 (P02791 whole entry, looked up): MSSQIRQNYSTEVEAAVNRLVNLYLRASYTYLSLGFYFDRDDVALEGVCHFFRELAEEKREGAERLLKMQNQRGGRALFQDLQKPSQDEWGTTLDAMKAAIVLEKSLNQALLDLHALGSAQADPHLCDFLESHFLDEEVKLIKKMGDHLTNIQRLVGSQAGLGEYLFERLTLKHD
Procedure, shortened: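 Probe: 1-aminoanthracene (50% saturated, PBS). Protein: horse-spleen apoferritin, 10 uM. Incubation: 10 min, room temperature. Detection: 380 nm excitation, 535 nm emission. Analysis: normalized response, four-parameter Hill.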
Potency means the concentration at half of the fitted maximal effect; tags describe the fitted curve by direction and shape.

SMILES | Potency
CC1(C)C([N+](=O)[O-])C(c2ccccc2O)NC(c2ccccc2O)C1[N+](=O)[O-] (centres undefined) | inconclusive: 17.8 µM [inhibitor, partial curve]
COc1cc(C2C(C#N)=C(N)Oc3n[nH]c(C)c32)ccc1OC(=O)c1ccccc1 (centres undefined) | inconclusive: 31.6 µM [inhibitor, partial curve]
FC(F)(F)c1ccnc(NCc2ccc(Cl)cc2)n1 | inconclusive: 50.1 µM [inhibitor, single point]
COc1ccc2sc(N(CCN(C)C)C(=O)/C=C/c3cccs3)nc2c1 | inactive
Cc1cccc(NC(=O)C2(C)Cc3ccccc3C(=O)O2)c1 (centres undefined) | inconclusive: 14.1 µM [inhibitor, partial curve]
O=C(NCc1ccc2c(c1)OCO2)C1CC(c2cccc(Br)c2)=NO1 (centres undefined) | inconclusive: 10 µM [inhibitor, partial curve]
CCc1ccc(CN(Cc2ccco2)C(=O)COc2ccc(Cl)cc2C)cc1 | inactive
Cn1c(N)c(C(=O)COC(=O)CCC2CCCC2)c(=O)n(C)c1=O | inconclusive: 25.1 µM [inhibitor, partial curve]
Cn1c(Sc2ccc(Br)cc2)c(C=O)c2ccccc21 | inconclusive: 28.2 µM [inhibitor, partial curve]
O=[N+]([O-])c1cc(-c2nc(-c3ccccc3)no2)ccc1NCCc1ccccc1 | inconclusive: 25.1 µM [inhibitor, partial curve]
O=C(CC1SC(=O)N(c2ccccc2)C1=O)Nc1ccccc1 (centres undefined) | inconclusive: 22.4 µM [inhibitor, partial curve]
CC1CCCN(c2ccc(C(=O)NCc3ccccc3)cn2)C1 (centres undefined) | inconclusive: 28.2 µM [inhibitor, partial curve]
Cc1ccc(-c2csc(N3CCN(CCCn4c(-c5ccncc5)nc5ccccc54)CC3)n2)cc1 | inconclusive: 28.2 µM [inhibitor, partial curve]
O=C(CC1C(=O)NCCN1CCCc1ccccc1)NCCc1ccccc1Cl (centres undefined) | inconclusive: 39.8 µM [inhibitor, single point]
O=C(c1ccc(Oc2ccc([N+](=O)[O-])cc2Cl)cc1)N1CCCC1 | inconclusive: 17.8 µM [inhibitor, partial curve]
O=C(N/N=C/c1ccccn1)c1cc(-c2ccc3ccccc3c2)n[nH]1 | inconclusive: 31.6 µM [inhibitor, partial curve, poor fit]
CCOC(=O)CCNCc1ccc(F)cc1 | inactive
N#Cc1c(N)c(C#N)c(-c2ccc(O)cc2)c2c1CCCC2 | inactive
COc1cccc(-c2nc(SCC(=O)NC3CCCC3)c(-c3ccc(F)cc3)[nH]2)c1 | inactive
